Measured values reported in the supplement of paper PMC4967469.
Lines with a small IC50 respond at low doses; where the fit passes the top or lowest dose, that dose stands as a limit. AUC is the area under the same curve over the 256-fold range up to the top dose, as a fraction; values near 1 show little effect. For part of these data: The top dose, if marked as inferred, was derived from the fitted curves, not read from the paper. For part of these data: Drugs with an entry number were screened twice under separate entries, and the two screens often disagree.

Experiments:
Assay in all cases: Viability of human cancer cell lines after 72 h of drug (GDSC screen)
Elesclomol = compound: CN(NC(=O)CC(=O)NN(C)C(=S)c1ccccc1)C(=S)c1ccccc1 [Elesclomol]; details: top dose 0.2 µM; top dose inferred
Protocol: (§1)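 Human cancer cell lines in 384-well plates, medium with 10% serum, drug for 72 h over a 256-fold dose range (nine 2-fold or five 4-fold steps up to the top dose). Adherent lines were fixed and stained with the nucleic acid dye Syto60, suspension lines read with resazurin; signal relative to control wells, capped at 0 and 100%. One two-parameter sigmoid per drug and line, fitted in a mixed model over all curves with the slope shared within a line.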

Tamoxifen = compound: CC/C(=C(\c1ccccc1)c1ccc(OCCN(C)C)cc1)c1ccccc1 [Tamoxifen]; details: top dose 5 µM
Protocol: as §1

BX-912 = compound: O=C(Nc1cccc(Nc2ncc(Br)c(NCCc3cnc[nH]3)n2)c1)N1CCCC1 [BX-912]; details: top dose 10.24 µM; top dose inferred
Protocol: as §1

OSI-930 = compound: O=C(Nc1ccc(OC(F)(F)F)cc1)c1sccc1NCc1ccnc2ccccc12 [OSI-930]; details: top dose 10.24 µM
Protocol: as §1

LAQ824 = compound: O=C(/C=C/c1ccc(CN(CCO)CCc2c[nH]c3ccccc23)cc1)NO [LAQ824]; details: top dose 1.024 µM; top dose inferred
Protocol: as §1

Masitinib = compound: Cc1ccc(NC(=O)c2ccc(CN3CCN(C)CC3)cc2)cc1Nc1nc(-c2cccnc2)cs1 [Masitinib]; details: top dose 20 µM
Protocol: as §1

Bleomycin = compound: Cc1c(N)nc([C@H](CC(N)=O)NC[C@H](N)C(N)=O)nc1C(=O)N[C@H](C(=O)N[C@H](C)[C@@H](O)[C@H](C)C(=O)N[C@H](C(=O)NCCc1nc(-c2nc(C(=O)NCCC[S+](C)C)cs2)cs1)[C@@H](C)O)[C@@H](OC1OC(CO)C(O)C(O)C1OC1OC(CO)C(O)C(OC(N)=O)C1O)c1cnc[nH]1 [Bleomycin]
Protocol: as §1

HG-5-88-01 = compound: COc1cc(N2CCC(C(N)=O)CC2)ccc1Nc1nc(N)c(Cl)c(Nc2ccccc2S(=O)(=O)C(C)C)n1 [HG-5-88-01]; details: top dose 10 µM; top dose inferred
Protocol: as §1

VNLG/124 = compound: CCCC(=O)OCc1ccc(OC(=O)/C=C(C)/C=C/C=C(C)/C=C/C2=C(C)CCCC2(C)C)cc1 [VNLG/124]; details: top dose 5.12 µM; top dose inferred
Protocol: as §1

NSC-87877 = compound: O=S(=O)(O)c1ccc2cc(N=Nc3cc(S(=O)(=O)O)c4cccnc4c3O)ccc2c1 [NSC-87877]; details: top dose 16 µM; top dose inferred
Protocol: as §1

[1] = top dose 50 µM, screen: GDSC drug entry 1378, top dose inferred
[2] = top dose 64 µM, screen: GDSC drug entry 190

| Cell Line | AUC (Elesclomol) | IC50 (Elesclomol) [µM] | AUC (Tamoxifen) | IC50 (Tamoxifen) [µM] | AUC (BX-912) | IC50 (BX-912) [µM] | AUC (OSI-930) | IC50 (OSI-930) [µM] | AUC (LAQ824) | IC50 (LAQ824) [µM] | AUC (Masitinib) | IC50 (Masitinib) [µM] | AUC (Bleomycin; [1]) | IC50 (Bleomycin; [1]) [µM] | AUC (Bleomycin; [2]) | IC50 (Bleomycin; [2]) [µM] | AUC (HG-5-88-01) | IC50 (HG-5-88-01) [µM] | AUC (VNLG/124) | IC50 (VNLG/124) [µM] | AUC (NSC-87877) | IC50 (NSC-87877) [µM] |
| --- | --- | --- | --- | --- | --- | --- | --- | --- | --- | --- | --- | --- | --- | --- | --- | --- | --- | --- | --- | --- | --- | --- |
| WIL2-NS (lymphoid neoplasm, suspension) | 0.806 | 0.0801 | 0.979 | > 5 | 0.678 | 1.81 | 0.694 | 1.99 | 0.315 | 0.0218 | 0.891 | 15.6 | 0.323 | 1.11 | 0.21 | 0.698 | 0.991 | > 10 | 0.96 | > 5.12 | 0.978 | > 16 |
| SW684 (fibrosarcoma, adherent) | 0.943 | > 0.2 | 0.98 | > 5 | 0.982 | > 10.2 | 0.971 | > 10.2 | 0.818 | 0.962 | 0.961 | > 20 | 0.798 | 37.9 | 0.981 | > 64 | 0.973 | > 10 | 0.982 | > 5.12 | 0.983 | > 16 |
| CS1 (bone, adherent) | 0.504 | 0.0128 | 0.982 | > 5 | 0.906 | > 10.2 | 0.961 | > 10.2 | 0.571 | 0.102 | 0.837 | 15.6 | 0.331 | 0.994 | 0.654 | 11.3 | 0.95 | > 10 | 0.977 | > 5.12 | 0.939 | > 16 |
| NCI-H226 (lung squamous cell carcinoma, adherent) | 0.821 | 0.124 | 0.986 | > 5 | 0.851 | 8.45 | 0.964 | > 10.2 | 0.481 | 0.0565 | 0.881 | > 20 | 0.61 | 6.38 | 0.86 | 58.3 | 0.906 | > 10 | 0.987 | > 5.12 | 0.976 | > 16 |
| NOMO-1 (acute myeloid leukaemia, suspension) | 0.486 | 0.0114 | 0.897 | > 5 | 0.673 | 2.09 | 0.981 | > 10.2 | 0.454 | 0.0471 | 0.865 | > 20 | 0.712 | 13.6 | 0.521 | 4.61 | 0.895 | > 10 | 0.826 | 3.69 | 0.982 | > 16 |
| G-MEL (melanoma, adherent) | 0.304 | 0.00354 | 0.985 | > 5 | 0.915 | > 10.2 | 0.917 | > 10.2 | 0.592 | 0.114 | 0.828 | 12.1 | 0.715 | 12.6 | 0.685 | 13.1 | 0.973 | > 10 | 0.983 | > 5.12 | 0.871 | 14.7 |
| SW948 (large intestine, adherent) | 0.981 | > 0.2 | 0.98 | > 5 | 0.881 | > 10.2 | 0.926 | > 10.2 | 0.537 | 0.0843 | 0.894 | > 20 | 0.739 | 21.2 | 0.923 | > 64 | 0.97 | > 10 | 0.977 | > 5.12 | 0.972 | > 16 |
| COLO-668 (small cell lung carcinoma, adherent) | 0.96 | > 0.2 | 0.986 | > 5 | 0.918 | > 10.2 | 0.988 | > 10.2 | 0.316 | 0.0195 | 0.889 | > 20 | 0.931 | > 50 | 0.059 | < 0.25 | 0.925 | > 10 | 0.989 | > 5.12 | 0.965 | > 16 |
| H513 (mesothelioma, semi-adherent) | 0.854 | > 0.2 | 0.984 | > 5 | 0.975 | > 10.2 | 0.984 | > 10.2 | 0.776 | 0.502 | 0.977 | > 20 | 0.766 | 22.3 | 0.906 | > 64 | 0.945 | > 10 | 0.986 | > 5.12 | 0.894 | > 16 |
| LS-1034 (large intestine, adherent) | 0.986 | > 0.2 | 0.985 | > 5 | 0.944 | > 10.2 | 0.97 | > 10.2 | 0.371 | 0.0271 | 0.864 | > 20 | 0.922 | > 50 | 0.804 | 36.2 | 0.884 | > 10 | 0.981 | > 5.12 | 0.985 | > 16 |
| CAL-33 (head and neck, adherent) | 0.357 | 0.00503 | 0.985 | > 5 | 0.928 | > 10.2 | 0.98 | > 10.2 | 0.562 | 0.0943 | 0.949 | > 20 | 0.335 | 1.09 | 0.348 | 1.52 | 0.861 | 8.47 | 0.972 | > 5.12 | 0.983 | > 16 |
| CW-2 (large intestine, adherent) | 0.836 | 0.147 | 0.988 | > 5 | 0.829 | 7.01 | 0.928 | > 10.2 | 0.966 | > 1.02 | 0.901 | > 20 | 0.711 | 12.9 | 0.971 | > 64 | 0.968 | > 10 | 0.988 | > 5.12 | 0.965 | > 16 |
